Measurements from PubChem BioAssay AID1963576 (National Center for Advancing Translational Sciences (NCATS), 2024).
About 60 (0.1%) of roughly 46,000 compounds were called active. Not shown: some 3% with an inconclusive outcome. The call rests on the fitted dose curve; in most records, active means well fitted inhibition curve with a large enough effect; inconclusive means small, poorly fitted or top-dose-only effect; inactive means no such curve, though single readings can be large or run the other way. This is one part of the list.

assay: Primary qHTS assay for Inhibitors of ovarian cancer metastasis using an organotypic tumor microenvironment (TME) model.; further: nearly all actives have a fitted effect of over 65% in size;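 on activity change, negative = inhibition: plate controls were DMSO wells for no effect and tomatine positive control wells for full effect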; settings: SKOV3ip1-GFP adhesion/invasion on 3D omental model, fluorescence; series mostly up to 45.8 µM; activity change, negative = inhibition: at the top concentration
In short: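 A 3D layer of primary human omental fibroblasts, mesothelial cells, fibronectin and collagen I, grown 48 hr, received SKOV3ip1-GFP cells in serum-free medium plus compounds at 0.36-46 umol/L. After 2 hr RT and 16 hr 37 C, fixed adherent GFP cells were counted; normalized to DMSO and tomatine.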

Activity change, negative = inhibition, inactive:
COc1cccc(CNC(=O)C2CCN(S(=O)(=O)N3CCC(C)CC3)CC2)c1 -5.47%, CC1CCN(S(=O)(=O)c2ccc3nc(Nc4ccc(C#N)cc4)ccc3c2)CC1 1.3%, COc1cccc2c1Oc1ncccc1N(C(=O)Nc1cccc(Cl)c1)C2 3.17%, Cc1cccc(CNC(=O)c2ccc3c(c2)N(C)C(=O)C2CCCCN32)c1 (stereo unspecified) -2.63%, COc1ccc(CNS(=O)(=O)c2cnc(N)nc2)cc1 -0.247%, CCOc1ccccc1NC(=O)CN1c2ccccc2S(=O)(=O)c2ccccc21 0.329%, CCCCC(=O)OC1=C(C(=O)c2ccccc2)N(C)S(=O)(=O)c2ccccc21 -3.66%, CCOc1ccccc1NC(=O)C1CCN(S(=O)(=O)c2ccc3[nH]c4c(c3c2)CCCCC4)CC1 5.84%, Cc1nn(C)c(C)c1S(=O)(=O)N(CC(=O)N1CCN(c2ccccc2)CC1)c1ccc(C(C)C)cc1 4.26%, COc1cc2c(cc1OC)[C@@H]1C(=O)c3ccc4c(c3O[C@@H]1CO2)C=CC(C)(C)O4 1.7%, Cc1ccccc1NC(=O)c1ccc(F)c(S(=O)(=O)N(C)C2CCCCC2)c1 -5.39%, O=C(NCc1cccs1)c1ccc(CSc2nc3cccnc3n2Cc2ccccc2)cc1 0.757%, Cc1ccc(C)c(NC(=O)Cn2c(=O)ccc3cc(S(=O)(=O)N4CCCC4)ccc32)c1 -1.91%, COc1ccccc1NC(=O)c1cc2c([nH]c1=O)CC(C)(C)CC2=O -0.132%, O=C(CCn1c(=O)c2cccn2c2ccccc21)Nc1ccc(F)cc1 -13.9%, CCCCCNC(=O)c1ccc2c(c1)nc(C)n2-c1cccc(C)c1 3.69%, CCN1CCN(C(c2ccccc2)c2c(O)cc(C)n(Cc3ccco3)c2=O)CC1 (stereo unspecified) -1.84%, COc1ccc(CNC(=O)C2CCN(S(=O)(=O)c3ccc(C)cc3)CC2)cc1 -0.336%, Fc1ccc(Cc2cn3cc(-c4ccc(Cl)cc4)nc3s2)cc1 18.7%, CC1Cc2cc(S(=O)(=O)N(C)c3ccc(Br)cc3)ccc2N1C(=O)C1CC1 (stereo unspecified) -24.2%, O=C(COc1ccc(Cl)cc1)NCCc1csc(-c2ccc(F)cc2)n1 3.95%, CCOC(=O)c1nnn(CC(=O)NC(=O)Nc2cccc(CC)c2)c1C(=O)OCC -19.3%, CCOc1ccc(CCNC(=O)c2cccc(-n3c(C)nc4cccnc43)c2)cc1 28%, COc1ccc(-c2nnc3c4ccccc4c(-c4ccccc4)nn23)cc1 21.7%, COc1ccc(OC)c(CNC(=O)C2CCN(c3ncnc4c3nc3n4CCCCC3)CC2)c1 -7.56%, CC(=O)c1cccc(NC(=O)c2nc3ccccc3nc2N2CCCCC2)c1 4.23%, O=C(CCn1nc(-c2ccc(Cl)cc2)c2ccccc2c1=O)Nc1ccc(OC(F)(F)F)cc1 -3.82%, O=C(Nc1ccc(F)cc1Cl)C1Cc2ccccc2N1C(=O)c1ccccc1 (stereo unspecified) -9.28%, Cc1ccc(C2=NN(CC(=O)NCCc3ccc(Cl)cc3)C(=O)CC2)cc1 -9.89%, CCOc1ccc(-c2cn3c(n2)sc2cc(C(=O)NCCc4ccc(OC)c(OC)c4)ccc23)cc1 -5.42%, O=C(Nc1cc(F)ccc1F)c1cc2nc(-c3ccco3)cc(C(F)(F)Cl)n2n1 15.8%, COC(=O)c1cc(S(=O)(=O)NCC2CCN(Cc3ccccc3F)CC2)c[nH]1 21.3%, CCC(C)(C)NC(=O)Cn1c(=O)ccc2cc(S(=O)(=O)N3CCC(C)CC3)ccc21 -2.85%, CCOC(=O)N1CCC(NC(=O)c2ccc3c(c2)N(Cc2cc(C)ccc2C)C(=O)c2ccccc2S3=O)CC1 (stereo unspecified) 3.18%, O=C(CSc1nccn1Cc1ccccc1)Nc1ccc2c(c1)OCO2 12%, Cc1cccc(NC(=O)N2CCC(n3c(C)nc4cccnc43)CC2)c1 13.7%, CN(C(=O)c1cc2c(=O)n3ccccc3nc2n1C)c1ccccc1 -12.4%, CC(C)c1cnn2c(NCc3ccccc3)cc(N[C@@H](CO)[C@H](O)CO)nc12 20.3%, CCOc1cc(C(=O)NCCc2csc(-c3ccc(C)cc3)n2)cc(OCC)c1OCC 2.06%, CCOC(=O)c1c(NC(=O)CSc2nc(-c3ccccc3)cc(C(F)(F)F)n2)sc(C)c1C 2.25%, Cn1cc(CCCC(=O)NCc2ccccc2Cl)c2ccccc21 17%, CCOc1ccc(CCNC(=O)CN2C(=O)c3cccnc3Oc3ccc(Cl)cc32)cc1 3.45%

outcome, inactive:
Cc1ccc(CNC(=O)c2cc(S(=O)(=O)N3CCCCCC3)cn2C)cc1, O=C(Nc1ccc(F)cc1F)c1cnn(-c2ccc(F)cc2)c1-n1cccc1, Cn1nc(-c2ccc(C(=O)Nc3cccc(C(F)(F)F)c3)cc2)c2ccccc2c1=O, O=C1C2=C(Nc3ccccc3SC2c2ccccc2C(F)(F)F)c2ccccc21 (stereo unspecified), N#C/C(=C/c1ccc(Cl)cc1Cl)c1nc2ccccc2c(=O)[nH]1, COc1ccc(NC(=O)C2CCCN(S(=O)(=O)c3cccs3)C2)cc1 (stereo unspecified), CCC1CCCCN1CCCNC(=O)c1cc2c(=O)n(CC)c3ccccc3c2s1 (stereo unspecified), CCN(CC)C(=O)c1sc2c(c1C)c(=O)n(-c1ccc(Cl)c(Cl)c1)c(=O)n2CC(=O)Nc1cccc(OC)c1, O=C(Nc1ccccc1F)c1ccc(-c2ccccc2)s1, COC(=O)c1c(N)n(-c2ccc(OC)c(Cl)c2)c2nc3ccccc3nc12, Cc1ccc(Cl)cc1N1CCN(C(=O)C2CCN(S(=O)(=O)c3ccc4c(c3)oc(=O)n4C)CC2)CC1, CCC(=O)N1CCc2cc(S(=O)(=O)CCC(=O)N3CCN(c4ccc(C(C)=O)cc4)CC3)ccc21, CN1C(=O)C2(c3ccccc31)N(c1ccc(F)c(Cl)c1)C(=O)CS2(=O)=O (stereo unspecified), Cc1cc(C)c2c(n1)nn1c(C)c(CCC(=O)NCc3ccc(Cl)cc3)c(C)nc21, COc1ccc(CCNC(=O)CCn2c(=O)c3cccn3c3cccnc32)c(OC)c1OC, CCOc1ccc(CCNC(=O)Cn2nnc(-c3ccc(C(F)(F)F)cc3)n2)cc1OCC, CC(=O)Nc1nnc(SCc2cc(=O)c3cccc(Cl)c3[nH]2)s1, O=C(c1ccc([N+](=O)[O-])cc1)N1CCN(c2ccc(Nc3ccccc3)nn2)CC1, Cc1ccc(CNc2ccc(-c3nc(-c4ccccn4)no3)cc2[N+](=O)[O-])cc1
